The values that follow come from the RNAGym collection of RNA variant scans (doi:10.7554/elife.90254).

The source gives no read counts; variants with many changes may rest on few reads.

B1: LINE1-full (parent)
chain: UACGUAGGUGGUUUUCCCCUGAUAGUGCUAAGGGGGCCUGGAAGUUUGGACUGGGCAGAGCUCAACACAGCGUGGCAAAGUGGCUGUGGCUAGACUGCCUCUCUGGAUUCCUCGUCACUCAGCAGGGCAUCUCUGAGAGAAAUGCC

Variants of B1 are the subject of the series. As to the kind of experiment: self-cleavage, relative activity (ratio to wild type); higher = more cleavage; in vitro, sequencing; the parent is a self-cleaving ribozyme.
U9A C17U A64U U134C: the self-cleavage worked out at 0.66. U9A G86U A124U U134C: the self-cleavage worked out at 0.13.

As for U9C C61A A67U, the self-cleavage was found to be 0.1. For U9G U13C A117U, the self-cleavage stood at 1.7. In the case of U9A U81A U102C U104C, the self-cleavage was 0.

Consider U9G A59G U102G C123U, for which the self-cleavage was 0.38. As for U9C U14C G89A, the self-cleavage is 0.32. In the case of U9A U26C A94C A124G A141G, the self-cleavage stood at 0. In the case of U9C U39C A59U A69U, the self-cleavage came out at 0.

Take U9C G36A U47A C84U U100C U104C G105C: the self-cleavage stood at 0.19.

On to U9A C19U U39A U100G A141G, for which the self-cleavage worked out at 0.3. Consider U9C A67U A92G A94U U96A U115C, for which the self-cleavage was found to be 0.66. Consider U9A A142G U143C, for which the self-cleavage is 1.11.

U9C U12C A78G A141G: the self-cleavage is 0.97. Then U9C A24U C111U, with 0.8.

Regarding U9C A31G C56A U91C, the self-cleavage amounted to 0.2.

Take U9C U14C U104C A138G: the self-cleavage came out at 0.77. On to U9C U73C U87A A142G, for which the self-cleavage is 0.22. As for U9C U100C G135A, the self-cleavage was determined as 1.56.

Consider U9C U26A U46C U47A C71G U73A A77G, for which the self-cleavage is 0.16. For the variant U9C A42G C84G, the self-cleavage was 0.51.

As for U9C U85A U119A U132A, the self-cleavage was 0.07. On to U9C U52C A94U G135U, for which the self-cleavage came out at 0.9. As to U9C A43G U115C, the self-cleavage came out at 0.92. With U9C U26C A30U A57U, the self-cleavage stood at 0.28. Then U9C A42G U102A U108C, with 0.97; and U9C U13C U29A A121U, with 0.98; and U9C G89U C123U, with 0.09. Under U9C U52C C90U A136G C146U stands 0.07.

For the variant U9C C51G C123U A138G, the self-cleavage is 1.56.

With U9A G55C U91A, the self-cleavage is 0.2.

U9C A57G U81A: the self-cleavage amounted to 1.81. Take U9C U14A C90U: the self-cleavage was 0.09.

Take U9C A67G U134C: the self-cleavage came to 0.4. For the variant U9C U85A A94G, the self-cleavage turned out to be 0.36.

As to U9C A22U G74A A138G, the self-cleavage is 1.11.

U9C A78U U109C A138U: the self-cleavage is 1.9. Consider U9A U20C U130A A138G, for which the self-cleavage was 2.38. Consider U9G A59C U62C, for which the self-cleavage was determined as 0. Then U9C U100C C123U A138G, with 1.41. Regarding U9A U46C U130C, the self-cleavage worked out at 1.15. Then U9C U15A U100C, with 1; and U9A A124C A140G, with 0.32; and U9C U73C G144A, with 0.89. Turning to U9C A57G U119C U130C, the self-cleavage stood at 1.67.

Consider U9C U15C U46C, for which the self-cleavage stood at 0.78. Under U9C U13G U143C stands 1.21; under U9A G74A A141G, 0.94. As for U9A A65G G75U U81A G89U, the self-cleavage worked out at 0.03.

For U9C A69U A78G C131A, the self-cleavage stood at 0.09. For the variant U9A U14C U100A U108C, the self-cleavage is 0.95. Under U9A U14A A141G stands 0.28; under U9G G40A U134G, 1.27. U9A A42G U115A A136U A140G: the self-cleavage turned out to be 2.02. As to U9A G54A A142G, the self-cleavage was determined as 0.06. Consider U9C U26C A136G, for which the self-cleavage came to 0.82.

Turning to U9C G27A A65G U85C, the self-cleavage turned out to be 0.08. Then U9A G27A U62C A64U, with 0.11; and U9A A78G U85C A124G, with 0.56; and U9G C66A U115C, with 0.07. Consider U9C U62C A67G, for which the self-cleavage turned out to be 0. In the case of U9C U26C C99A, the self-cleavage was 0.71. On to U9A U20C U47A U112A A124G A141G, for which the self-cleavage was 1.17.

Take U9C U13C A142G: the self-cleavage came out at 1.64. For the variant U9C U12G U29C, the self-cleavage was 0.88. With U9C G48U A129C, the self-cleavage is 0.76. Then U9A A67G A92G U112A A140U, with 0.32; and U9C U13C U87C U102C, with 1.84; and U9C A57G A107G, with 1.31. Under U9A C18U U29C A57G A59U U73C stands 0; under U9A A43G A69G U130C A140G, 0; under U9C U39A A92U A142C, 1.13. Then U9A A77G U85C, with 0.82; and U9C U62C G75A A124G A140G, with 0; and U9A U12C U134C, with 0.63. With U9C A79G A121U, the self-cleavage was 1.58. Take U9A U15C A64G G72A U81C G114A: the self-cleavage is 0.27.

U9G U96A A141G: the self-cleavage came to 0.08.

On to U9A U134A A140G, for which the self-cleavage is 0.12. As to U9A A42G U73C, the self-cleavage worked out at 1.39.

With U9C U12C U13C A64U U130G A142G, the self-cleavage was determined as 0.89. Turning to U9A U87C A140G A142G, the self-cleavage was 0.29. Consider U9A U47A U102C, for which the self-cleavage was found to be 1.01. For U9A G32A A67U U102C, the self-cleavage was 0.18. As for U9A U47C U85A U108C, the self-cleavage amounted to 0.51. Take U9C U13C A31G U102C: the self-cleavage stood at 1.78. Consider U9C U14A U73A, for which the self-cleavage is 1.07. Under U9C U29C A138G stands 0.79; under G10A A121G U132C, 2.26. Then U9C G27A U62C A92U A121G, with 0.08; and U9C U81C C90A, with 0. Then U9C U13C U81A A138G A142G, with 2.22; and U9G U20A U39A U46A A94C, with 0.07; and U9G A42U U46C U62C G86A C146U, with 0.06. Regarding U9A U100C A107G, the self-cleavage is 1.53. Take U9A U23G U109C U143C: the self-cleavage was determined as 0. Consider U9A U45C C118A A138G, for which the self-cleavage amounted to 1.32. Turning to U9A A42G U46A U112A U115A, the self-cleavage came to 1.53. Under U9C C66A U87C A138G C146A stands 0.66; under U9C A30G G36U U46C A138G, 1.11. For U9G A42U G48A U62C A140G, the self-cleavage stood at 0.1. Then U9G A69G U143G, with 0.84; and U9C U39C A50G, with 0.55. As to U9C U15C U85G U87A G106U, the self-cleavage was 0.17. For U9A A65G A69G, the self-cleavage was determined as 0.

As to U9C A64U A77G U100C, the self-cleavage stood at 1.59.

Regarding U9C A69G U87G A121U G135U, the self-cleavage was 0.

On to U9C A117U U130A, for which the self-cleavage came out at 1.67.

On to U9A C19U U39C U132C, for which the self-cleavage came out at 1.06.

As for U9A U39A A79G U119C, the self-cleavage is 1.25. Then U9C A42G C98U, with 0.6.

For the variant U9C C111U A117G, the self-cleavage came out at 0.95. In the case of U9A G60A A64U A107U A124G U134C A142G, the self-cleavage stood at 0. For U9C G36A U45G A141G, the self-cleavage came to 0.47. For U9A U12C A77G G82A A136U, the self-cleavage was found to be 1.56. Then U9C C19U U29C U134A, with 1.49; and U9C A59G U96C, with 0; and U9C A69G U134C, with 0.28. Under U9A U39A A129G stands 1.05; under U9C U23C G75A A77G U100C A140G, 1.26. Under U9C U52C G53A A124G stands 0.31. For U9C A77U U109C U112A, the self-cleavage was 0.46. For U9C U13A A78U, the self-cleavage stood at 1.23. As to U9G U96C A140U, the self-cleavage is 0.55. Then U9C U47C U143G, with 0.66; and U9A G80A U115C, with 1.81; and U9C A77G G139A, with 1.68.

Consider U9C U45C A57U, for which the self-cleavage is 0.32.

For the variant U9C U46C A69U A94G A129G A136U, the self-cleavage worked out at 0.

On to U9C G72A U143A, for which the self-cleavage was 0.98. With U9C A30U A43G U52A, the self-cleavage stood at 1.17.

For the variant U9C U45C G49U U108C, the self-cleavage is 1.49.

For U9A U134C A136U, the self-cleavage came to 1.25.

As to U9A A57G G60A G88A, the self-cleavage was determined as 0.09.

As for U9C A69G G114A, the self-cleavage is 0.17. Regarding U9C U73C G125A, the self-cleavage stood at 1.88.

Turning to U9A U47C A67U A117C C118U A124G, the self-cleavage came out at 0.15. On to U9C A42G U52A, for which the self-cleavage amounted to 1.87.

Take U9G A141G U143C: the self-cleavage amounted to 1.02.

Turning to U9C U12C U23C A43G, the self-cleavage was determined as 0. With U9A A78U A121U A141G, the self-cleavage is 1.49. Under G10A A57G U104C A124U stands 1.51; under U9C U102G A129G, 0.61. With U9C G54U A69U A94U, the self-cleavage turned out to be 0.04.

Turning to U9A U12C A142U, the self-cleavage worked out at 0.99. Consider U9A U14C A79U U112C G114A, for which the self-cleavage is 1.77.

For the variant U9A U20C G41U, the self-cleavage worked out at 0.66.

Take U9C U100C A138G: the self-cleavage came to 1.75.

Take U9A U20G U100C: the self-cleavage stood at 1.2. Turning to U9C U45A U62C U119A, the self-cleavage worked out at 0.08. With U9A U47C U132C, the self-cleavage stood at 0.89. Regarding U9G U87C U108C, the self-cleavage stood at 1.67. For U9C A42G U73C U96A, the self-cleavage was found to be 0.77.

Take U9C U20G G33U: the self-cleavage came to 2.3. For U9G A24G U109A A129G, the self-cleavage stood at 1.02. Turning to U9C U13C U29A G88A U112C A136G, the self-cleavage turned out to be 0.19. As for U9A A78U U100C A142G, the self-cleavage was 1.65.

U9C A31G U45A A107G A136G: the self-cleavage turned out to be 0. As for U9C U39C A142G, the self-cleavage was found to be 1.62. For the variant U9C U39C U62A, the self-cleavage amounted to 0.12. Turning to U9C U23A U62C, the self-cleavage was 0.

Consider U9A G34U U46A, for which the self-cleavage came out at 1.27. U9A A94U A129U: the self-cleavage was determined as 0.26.

U9C U12C C131U: the self-cleavage was determined as 0.42. Regarding U9C A42G U46C A50G G60A G126U, the self-cleavage is 0.19. U9A A65G A124G U130C: the self-cleavage came to 0.51.

For U9A U29A A124C A140G U143A, the self-cleavage is 0.5.
